Experimental data reported in PubChem BioAssay AID1508624 (National Center for Advancing Translational Sciences (NCATS), 2021).
Out of some 48,000 compounds screened, about 120 (0.25%) were called active. Another 4% or so got no clear call; they are omitted. The call rests on the fitted dose curve; in most records, active means well fitted activation curve with a large enough effect; inconclusive means small, poorly fitted or top-dose-only effect, or another doubt; inactive means no such curve, though single readings can be large or run the other way. The list shows a part of the results.

assay: Primary qHTS for Identification of Small Molecule Activators of Huntingtin-Antisense Promoter Activity; conditions: HEK293 HTT-AS promoter firefly luciferase reporter (activity 0% = vehicle and -100% = no light), 24 h; series mostly up to 57.5 µM; activity change, positive = activation: at the top concentration; further: nearly all actives have a fitted effect of over 55% in size
Method in brief: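 Firefly luciferase signal from promoter-reporter HEK293 cells was scaled between vehicle (0%) and zero RLU (-100%). Compounds were tested at final concentrations of up to 57.5 uM over 24 h at 37 degrees C. PTC124 at 50 uM final served as control inhibitor.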

SMILES	activity change, positive = activation
CCc1ccc(CNC(=O)c2cnc3sc(N4CCCCCC4)nn3c2=O)cc1	inactive: -1.75%
CCOc1ccc(C(=O)Nc2ccc3nc(SCC(=O)N4CCCC4)sc3c2)cc1	inactive: -7.47%
Cc1ccc(CSc2nc3cccnc3n2Cc2nc(-c3ccccc3F)oc2C)cc1	inactive: -8.56%
CCOc1ccc(CNC(=O)CN2C(=O)CSc3c2c(C)nn3-c2ccccc2)cc1	inactive: -2.99%
COCCNC(=O)c1ccc(NC(=O)N2CCCCc3ccccc32)cc1	inactive: -18.6%
O=C(C1CC1)N1CCc2cc(Br)cc(S(=O)(=O)Nc3ccc(C(F)(F)F)cc3)c21	inactive: -50.3%
CCOc1ccc(-n2nc3ccc(NC(=O)COc4ccccc4C)cc3n2)cc1	inactive: -59.8%
COc1ccc(NC(=O)C(=O)NCCc2csc3nc(-c4ccccc4C)nn23)cc1	inactive: -8.05%
CCCC(=O)Nc1nnc(S(=O)(=O)N(C)c2ccccc2)s1	inactive: -8.11%
COc1ccc(S(=O)(=O)N(CCc2ccccc2)CC(=O)NCc2ccc(C)cc2)cc1	inactive: -21.3%
COc1ccccc1CCNC(=O)C1CCN(c2nc3ccccc3nc2C(F)(F)F)CC1	inactive: 19.4%
COC(=O)c1ccccc1NC(=O)CSc1c2c(nc3ccc(Cl)cc13)CCCC2	inactive: -3.37%
COc1cccc(CNC(=O)C2CCCN(c3nnc(-n4c(C)ccc4C)s3)C2)c1 (stereo not drawn)	inactive: -10.2%
CC1=C[C@@H]2[C@@H]([C@@H](O)C[C@@]3(C)[C@H]2C[C@@H](C)[C@]3(O)C(=O)CO)[C@@]2(C)Cc3cnn(-c4ccccc4)c3C=C12	inactive: -24.4%
CCCN(CCC)C(=O)C(CCC(=O)O)NC(=O)c1ccccc1 (stereo not drawn)	inactive: -7.73%
O=C(NCC(c1cccnc1)N1CCN(Cc2ccccc2)CC1)C(=O)Nc1ccc(F)cc1 (stereo not drawn)	inactive: 18.1%
CCOC(=O)c1ccccc1NC(=O)Cn1c(=O)n(-c2ccc(CC)cc2)c(=O)c2c(C)c(C(=O)N(C)C)sc21	inactive: -16.6%
CCOc1ccccc1CNC(=O)c1ccc2c(c1)nc1n2CCC(C)C1 (stereo not drawn)	inactive: 0.383%
CC(=O)c1ccc(N2C(=O)Nc3ccccc3S2(=O)=O)cc1	inactive: -16%
CC(C)Sc1nc2sc3c(c2c(=O)n1-c1ccccc1)CCCC3	inactive: -19.4%
Cc1ccc(CSc2cn(CCNC(=O)c3cccs3)c3ccccc23)cc1	inactive: -41.8%
O=C(Nc1ccc(F)c(Cl)c1)C1CCN(S(=O)(=O)c2ccc3c(c2)CCCN3C(=O)C2CCC2)CC1	inactive: -18%
Cc1ccc(N2CC(NC(=O)c3ccccc3Br)CC2=O)cc1 (stereo not drawn)	inactive: -8.67%
O=C(Cn1c(SCC(=O)Nc2ccc(F)cc2)nc2ccccc21)NCc1ccc(Cl)cc1	inactive: -20.5%

SMILES	activity change, positive = activation
Nc1ncc(S(=O)(=O)Nc2ccc(OC(F)(F)F)cc2)cn1	inactive: -18.4%
CCOc1ccc(C(=O)NCCc2sc(-c3ccc(F)cc3)nc2C)cc1	inactive: -11.2%
CCOC(=O)c1ccc(NC(=O)CN2C(=O)c3cccnc3Sc3ccccc32)cc1	inactive: 18.6%
COc1ccc(Nc2ncc(C(=O)N3CCN(c4ccccc4OC)CC3)c3ccccc23)cc1	inactive: -46.2%
Cc1ccccc1Cn1c(=O)n(CCCCCC(=O)NCc2ccc3c(c2)OCO3)c(=O)c2sccc21	inactive: -8.74%
O=C(Cn1ncc2c3ccccc3n(Cc3cccc(Cl)c3)c2c1=O)NCCC1=CCCCC1	inactive: -0.845%
CO[C@@]1(NC(=O)CSCC#N)C(=O)N2C(C(=O)O)=C(CSc3nnnn3C)CS[C@@H]21	inactive: -0.58%
CCN(CC)c1ccc(CNS(=O)(=O)c2cc3c(cc2C)NC(=O)CO3)cc1	inactive: -21.7%
COc1ccc(NC(=O)CSc2ncc3c(n2)-c2ccccc2N(C)S3(=O)=O)cc1Cl	inactive: -6.11%
CCOc1ccc(NC(=O)Nc2c[nH]c(=O)[nH]c2=O)cc1	inactive: -0.293%
Cn1c(SCc2ccccc2Cl)nc(=O)c2c1NC(=O)CC2c1cc(F)ccc1F (stereo not drawn)	inactive: -14.7%
Cn1cc(S(=O)(=O)N2CCCCC2)cc1C(=O)Nc1ccc(OC(F)(F)F)cc1	inactive: -20.6%
O=C(Cn1cc(S(=O)(=O)c2ccccc2)c(=O)c2cc3c(cc21)OCO3)Nc1ccccc1	inactive: -15.7%
O=C(NCCCc1ccccc1)c1nn(-c2ccccc2)nc1CO	inactive: -30.8%
Cc1noc(-c2ccc(-c3noc(-c4cccc(Cl)c4)n3)cc2)n1	inactive: 11.3%
Cc1ccc(S(=O)(=O)C(CNC(=O)c2ccc(C(F)(F)F)cc2)c2ccco2)cc1 (stereo not drawn)	inactive: -3.33%
N=C(N)c1ccc(OCCCOc2ccc(C(=N)N)cc2)cc1	inactive: -8.5%
CCc1ccc2occ(CC(=O)Nc3sc4c(c3C(=O)NCCOC)CCCC4)c2c1	inactive: -28.3%
Cc1nc2nc(SCC(=O)NC3CCC(C)CC3)nn2c(C)c1Cc1ccccc1Cl (stereo not drawn)	inactive: -18.7%
CCn1cc2nc(SCc3cccc(C)c3)n(CCc3ccccc3)c(=O)c2n1	inactive: -3.84%
Cc1nc2c(-c3ccccc3)c(C)nn2c(C)c1CCC(=O)NCc1ccccc1	inactive: -22.4%
Cc1ccc(S(=O)(=O)n2nc(-c3ccco3)nc2NCc2ccc(N(C)C)cc2)cc1	inactive: 2.34%
CCOC(=O)c1ccc(NC(=O)CCC(=O)N2CCSc3ccccc32)cc1	inactive: -25.8%
CCc1ccc2oc(-c3ccc(C)c(NC(=O)c4ccc(C#N)cc4F)c3)nc2c1	inactive: -17.7%
